Measured values reported in the supplement of paper PMC12297408.
Structures can show the parent of a compound that is named as a salt. In all, about 1,300 compounds went through this assay and about 40 (3%) showed activity. Some of the results follow.

System: Plasmodium falciparum NF54/iGP1_RE9H ulg8 stage V gametocytes
Assay: gametocyte viability (luciferase signal relative to DMSO control) (% of DMSO control); higher = less gametocytocidal activity, active = 50 or less
Conditions: exposure time: 72 h
Summary of the method: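 In 96-well plates holding nanolitre spots of compound (10 mM DMSO stocks), NF54/iGP1_RE9Hulg8 stage V gametocytes from day 12 were added at ~2.5% gametocytemia and 3% hematocrit in medium with 0.5% Albumax II, giving single wells at 10 µM or 1 µM. Incubation lasted 72 h at 37 °C. Each 90 µl sample then received 10 µl D-luciferin (30 mg/ml) before luminescence reading on an IVIS Lumina II, and viability was normalized to the mean of DMSO vehicle wells on the same plate.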

| Compound | gametocyte viability (concentration: 1 µM) | gametocyte viability (concentration: 10 µM) |
| --- | --- | --- |
| COC(=O)C1=C(C)NC(C)=C(C(=O)OC)C1c1ccccc1[N+](=O)[O-] [Nifedipine] | inactive: 91.8 | inactive: 80.7 |
| CO[C@@]1(NC(=O)C(C(=O)O)c2ccc(O)cc2)C(=O)N2C(C(=O)O)=C(CSc3nnnn3C)CO[C@@H]21 (stereo not given in full) [Moxalactam disodium salt] | inactive: 86.7 | inactive: 84.7 |
| C#C[C@]1(O)CC[C@H]2[C@@H]3CCC4=CC(=O)CC[C@@H]4[C@H]3CC[C@@]21C [Norethindrone] | inactive: 86.6 | inactive: 77.3 |
| C#C[C@]1(OC(C)=O)CC[C@H]2[C@@H]3CCC4=C[C@@H](OC(C)=O)CC[C@@H]4[C@H]3CC[C@@]21C [Ethynodiol diacetate] | inactive: 89.2 | inactive: 88.8 |
| Nc1ccc(S(=O)(=O)Nc2ncccn2)cc1 [Sulfadiazine] | inactive: 101 | inactive: 99 |
| C#C[C@]1(O)CC[C@H]2[C@@H]3CCc4cc(OC)ccc4[C@H]3CC[C@@]21C [Ethynylestradiol 3-methyl ether] | inactive: 98.5 | inactive: 94.7 |
| CC(C)NCC(O)c1ccc(NS(C)(=O)=O)cc1 (stereo not given) [Sotalol hydrochloride] | inactive: 83.1 | inactive: 92.1 |
| CC(=O)N1CCN(c2ccc(OCC3COC(Cn4ccnc4)(c4ccc(Cl)cc4Cl)O3)cc2)CC1 (stereo not given) [Ketoconazole] | inactive: 90.3 | inactive: 90 |
| CN(CCOc1ccc(NS(C)(=O)=O)cc1)CCc1ccc(NS(C)(=O)=O)cc1 [Dofetilide] | inactive: 83.4 | inactive: 71.8 |
| CCN(CC)CCCC(C)Nc1c2ccc(Cl)cc2nc2ccc(OC)cc12 (stereo not given) [Quinacrine dihydrochloride dihydrate] | inactive: 113 | active: 44.5 |
| CCCCCCCCCCCCCCCC[N+](C)(C)CCN(Cc1ccc(OC)cc1)c1ncccn1 [Thonzonium bromide] | inactive: 77 | active: 1.76 |
| CNC(=C[N+](=O)[O-])NCCSCc1ccc(CN(C)C)o1 [Ranitidine hydrochloride] | inactive: 94 | inactive: 95.9 |
| CC(C)C[C@H](NC(=O)[C@@H](O)[C@H](N)Cc1ccccc1)C(=O)O [Ubenimex] | inactive: 81.9 | inactive: 80.6 |
| COC(=O)[C@H]1[C@H]2C[C@@H]3c4[nH]c5cc(OC)ccc5c4CCN3C[C@H]2C[C@@H](OC(=O)c2cc(OC)c(OC)c(OC)c2)[C@@H]1OC [Reserpine] | inactive: 95.9 | inactive: 79.8 |
| CCOC(=O)Nc1ccc2c(c1)N(C(=O)CCN1CCOCC1)c1ccccc1S2 [Moricizine hydrochloride] | inactive: 84.5 | inactive: 81.2 |
| CC(C)(O/N=C(\C(=O)N[C@@H]1C(=O)N2C(C(=O)[O-])=C(C[n+]3ccccc3)CS[C@H]12)c1csc(N)n1)C(=O)O [Ceftazidime pentahydrate] | inactive: 91.4 | inactive: 98.9 |
| Cc1ccc(/C(=C\CN2CCCC2)c2ccccn2)cc1 [Triprolidine hydrochloride] | inactive: 93.8 | inactive: 94.3 |
| Cc1c(Cl)cccc1Nc1ncccc1C(=O)O [Clonixin Lysinate] | inactive: 81.2 | inactive: 80.2 |

| Compound | gametocyte viability (concentration: 1 µM) | gametocyte viability (concentration: 10 µM) |
| --- | --- | --- |
| C[C@H]1[C@H](NC(=O)/C(=N\OC(C)(C)C(=O)O)c2csc(N)n2)C(=O)N1S(=O)(=O)O [Aztreonam] | inactive: 96.9 | inactive: 96 |
| CNCCC=C1c2ccccc2CCc2ccccc21 [Nortriptyline hydrochloride] | inactive: 90 | inactive: 81.1 |
| CCc1c2c(nc3ccc(OC(=O)N4CCC(N5CCCCC5)CC4)cc13)-c1cc3c(c(=O)n1C2)COC(=O)[C@]3(O)CC [Irinotecan Hydrochloride] | inactive: 80.9 | inactive: 68.9 |
| CC(=O)Nc1c(I)c(NC(C)=O)c(I)c(C(=O)O)c1I [Diatrizoic acid dihydrate] | inactive: 80.4 | inactive: 84.5 |
| CCc1cc(C(N)=S)ccn1 [Ethionamide] | inactive: 83.3 | inactive: 88.3 |
| CCC(=O)[C@@]1(C)[C@H](C)C[C@H]2[C@@H]3CCC4=CC(=O)C=C[C@]4(C)[C@H]3[C@@H](O)C[C@@]21C [Rimexolone] | inactive: 89.4 | inactive: 85.3 |
| O=C(N/N=C/c1ccc([N+](=O)[O-])o1)c1ccc(O)cc1 [Nifuroxazide] | inactive: 95.9 | active: 30.6 |
| CN1CCN(C(c2ccccc2)c2ccc(Cl)cc2)CC1 (stereo not given) [Chlorcyclizine hydrochloride] | inactive: 96.9 | inactive: 91.7 |
| C[C@@H]1CN(c2c(F)c(N)c3c(=O)c(C(=O)O)cn(C4CC4)c3c2F)C[C@H](C)N1 [Sparfloxacin] | inactive: 99.5 | inactive: 99.4 |
| CC[C@]12CCCN3CCc4c(n(c5ccccc45)C(=O)C1)[C@@H]32 [Eburnamonine (-)] | inactive: 86 | inactive: 80 |
| CCn1cc(C(=O)O)c(=O)c2cc(F)c(N3CCN(C)CC3)cc21 [Pefloxacine] | inactive: 89.6 | inactive: 88.7 |
| CCn1cc(C(=O)O)c(=O)c2cc(F)c(N3CCNC(C)C3)c(F)c21 (stereo not given) [Lomefloxacin hydrochloride] | inactive: 84.7 | inactive: 90.8 |
| COc1cc(C)nc(-n2nc(C)cc2OC)n1 [Epirizole] | inactive: 89.3 | inactive: 96 |
| CS(=O)(=O)Nc1ccc([N+](=O)[O-])cc1Oc1ccccc1 [Nimesulide] | inactive: 85.9 | inactive: 88.3 |
| CNC(=C[N+](=O)[O-])NCCSCc1csc(CN(C)C)n1 [Nizatidine] | inactive: 87.6 | inactive: 89.3 |
| C[C@]12C=CC(=O)C=C1CC[C@@H]1[C@@H]2C(=O)C[C@@]2(C)[C@H]1CC[C@]2(O)C(=O)CO [Prednisone] | inactive: 85.1 | inactive: 80.3 |
| COc1cc(C)c(/C=C/C(C)=C/C=C/C(C)=C/C(=O)O)c(C)c1C [Acitretin] | inactive: 89 | inactive: 88.6 |
